Test results taken from PubChem BioAssay AID463173 (ICCB-Longwood Screening Facility, Harvard Medical School, 2010).
Out of some 52,000 compounds screened, about 1,700 (3.3%) were called active. No stated cut-off is given here; in the data, active means survival mostly below about 52% (no sharp cut-off); inactive means mostly above about 56%. The list shows a part of the results.

Tested on: Wild type
Assay: growth inhibition of S. aureus wild type versus tarO mutant, primary screen, teichoic acid synthesis inhibitors, RN4220, OD600 (AID 463173)
Conditions: S. aureus RN4220 wild type/DeltatarO growth, OD600, 18 h, hits give low values, screened at 18.75 µg/mL (by protocol)

SMILES	survival
O=C(Nc1ccccc1O)c1ccccn1	inactive: 114%
Cc1cc(C)cc(NC(=O)C2CCCN2S(=O)(=O)c2ccc3c(c2)C(C)(C)C(=O)N3C)c1 (configuration not stated)	inactive: 83%
CCOC(=O)c1ccc(NC(=O)c2ccc3c(c2)c(C)c(C)n3Cc2ccc(F)cc2)cc1	inactive: 90%
O=C(CN1CCN(c2nc3ccccc3s2)CC1)Nc1ccc2c(c1)OCO2	inactive: 101%
CCOC(=O)C1(C)C=C(Nc2ccc(OC)cc2)C(=O)N1c1ccccc1 (configuration not stated)	inactive: 67%
COc1ccccc1NC(=O)c1oc2ccccc2c1NC(=O)c1c(F)cccc1F	inactive: 60%
COc1ccc(Cn2cc(C(=O)c3ccc(Cl)cc3)c(=O)c3cc4c(cc32)OCO4)cc1	inactive: 71%
CCN(CC)c1ccc(/C=C2/SC(=O)NC2=O)cc1	inactive: 114%
Cc1cc(C)c(Cn2c3ccccc3c3cnn(CC(=O)NC4CCCCCC4)c(=O)c32)c(C)c1	inactive: 127%
Cc1ccc(-c2nnn(CC(=O)NC(C)C)n2)cc1	inactive: 105%
Cc1ccc(-n2nc3c(N4CCC(C(=O)N5CCC(C)CC5)CC4)nnc(C)c3c2C)cc1	inactive: 136%
O=C(Nc1cccc(Cl)c1Cl)c1cc(S(=O)(=O)N2CCC3(CC2)OCCO3)ccc1F	inactive: 75%
COc1cc(OC)cc(C(=O)Nc2ccc(S(=O)(=O)N3CCCCC3c3cccnc3)cc2)c1 (configuration not stated)	inactive: 71%
COC(=O)c1cc2oc3ccccc3c2n1Cc1nc(-c2cccc(Cl)c2)oc1C	inactive: 133%
CCc1ccc(Nc2nn3c(=O)c4cc5c(cc4nc3s2)OCO5)cc1	inactive: 78%
Cc1c(C(=O)NC2CCCCC2)oc2ccccc12	inactive: 130%
COCCn1nnnc1C(c1ccc(OC)c(OC)c1)N1CCc2ccccc21 (configuration not stated)	inactive: 121%
O=C(NCCN1CCN(c2ccccc2F)CC1)C1COc2ccccc2C1 (configuration not stated)	inactive: 73%
C=CCNC(=O)c1cc(-c2ccccc2)on1	inactive: 116%
NC(=O)CN1CCC(N2CCCCC2)CC1	inactive: 90%
CC(C)Cn1c(=O)c2sccc2n2c(CCCC(=O)NCC(C)c3ccccc3)nnc12 (configuration not stated)	inactive: 96%
COc1ccc(CNC(=O)c2ccc3c(c2)N(Cc2ccccc2F)C(=O)c2ccccc2S3=O)cc1 (configuration not stated)	inactive: 86%
CC(=O)Nc1nonc1-c1nnc(SCc2ccccc2C)n1C	inactive: 78%

SMILES	survival
CCOc1nc(NC(=O)NS(=O)(=O)Oc2cccc(F)c2)nc(-c2ccccc2)n1	inactive: 82%
COc1cccc(-c2ccc3c(N)c(C(=O)Nc4ccc(Cl)cc4F)sc3n2)c1	inactive: 79%
CCc1ccccc1NC(=O)Cc1ccc(-n2c(C)nc3cccnc32)cc1	inactive: 119%
COc1ccc(OC)c(NC(=O)Cc2c(C(=O)O)[nH]c3ccc(Cl)cc23)c1	inactive: 57%
Cc1ccc(C2=Nc3ccccc3N(CC(=O)NCc3ccc(Cl)cc3)C(=O)C2)cc1C	inactive: 66%
N/C(=N/OC(=O)c1ccccc1)c1ccccn1	inactive: 86%
O=C(CSc1oc(-c2ccccc2)nc1S(=O)(=O)c1ccc(Br)cc1)NC1CCCCC1	inactive: 74%
O=C(O)C1CCN1C1CCCCC1 (configuration not stated)	inactive: 99%
Cc1cccc(CSc2nc3cccnc3n2Cc2ccc(C(=O)NCc3cccs3)cc2)c1	inactive: 78%
NC(=O)Cn1c2[n+](c3ccccc31)CC(O)CS2 (configuration not stated)	inactive: 107%
O=C(c1ccccc1N=Nc1c(O)[nH]c(=O)[nH]c1=O)N1CCOCC1	inactive: 95%
O=C(c1ccc(Cl)cc1)N1CCCCC1CCN1CCOCC1 (configuration not stated)	inactive: 108%
Cc1ccc(C)c(N2CCN(C(=O)c3cc4c(=O)n(Cc5cccnc5)ccc4nc3C)CC2)c1	inactive: 64%
COc1ccc(NC(=O)CSc2nc3ccccc3n2CC(=O)N2CCCC(C)C2)cc1 (configuration not stated)	inactive: 78%
Cc1ccc(NC(=O)c2cc3c(Cl)nc4ccc(C)cc4c3s2)c(Cl)c1	inactive: 73%
Cc1cccc(C(=O)Nc2c(-c3ccc(F)cc3)nc3ccccn23)c1	inactive: 89%
Cc1cc(C)n(-c2nc3cc(Cl)c(Cl)cc3nc2Nc2ccc(F)cc2C)n1	inactive: 82%
CCn1c(=O)c2cc(C(=O)Nc3cc(C)c(Cl)cc3OC)sc2c2ccccc21	inactive: 66%
COc1ccc(CNC(=O)c2cc(-c3cccs3)nc3ccccc23)c(OC)c1	inactive: 107%
CCOc1ccccc1N1CC(c2nc3ccccc3n2CCOc2ccc(OC)cc2)CC1=O (configuration not stated)	inactive: 51%
CC(=O)N(Cc1cccnc1)c1nc2c(C)cc(C)cc2s1	inactive: 81%
Cc1ccc(NC(=S)N(Cc2ccco2)Cc2cc3cc(C)c(Cl)cc3[nH]c2=O)cc1	inactive: 108%
Cc1nnc(N2CCCC(C(=O)Nc3ccccc3C(F)(F)F)C2)c2nn(-c3ccccc3)c(C)c12 (configuration not stated)	inactive: 125%

SMILES	survival
CC1CCc2c(sc3nnn(Cc4ccccc4)c(=O)c23)C1 (configuration not stated)	active: 0%
Cc1ccc(-c2nc3ccccn3c2Nc2c(C)cccc2C)o1	active: -20%
Cc1ccc(NS(=O)(=O)c2ccc3[nH]c4c(c3c2)CCCC4)c(C)c1	inactive: 82%
NC(=O)N(CCC(=O)O)c1ccccc1	inactive: 109%
CCOc1ccc(NC(=O)Cn2cc(C(=O)c3ccccc3)c(=O)c3cc(OC)ccc32)cc1	inactive: 63%
O=C(Cc1ccc(F)cc1)NCCc1csc2nc(-c3ccc(Cl)cc3)nn12	inactive: 66%
CC(=O)N1C(=O)/C(=C2\SC(=S)N(C(C)C(=O)O)C2=O)c2ccccc21 (configuration not stated)	inactive: 110%
CCN1C(=O)c2ccccc2S(=O)c2ccc(C(=O)N3CCN(c4cccc(Cl)c4)CC3)cc21 (configuration not stated)	inactive: 84%
COC(=O)c1cc(NC(=O)CCc2c(C)nc3nc(C)nn3c2C)cc(C(=O)OC)c1	inactive: 72%
COC(=O)C1=C(C)Nc2nc3ccccc3n2C1c1ccccc1 (configuration not stated)	inactive: 91%
c1ccn(-c2ccc(N3CCOCC3)cc2)c1	inactive: 112%
CCCCn1c(SCc2ccccc2C#N)nc2c(sc3ccccc32)c1=O	active: 14%
CC1=C(C(=O)Nc2ccccc2C)C(c2ccc[nH]2)n2ncnc2N1 (configuration not stated)	inactive: 99%
Cc1ccc(-n2ncc3c(=O)n(Cc4cccc(C(F)(F)F)c4)cnc32)cc1C	inactive: 90%
Cc1cccc(CC(=O)Nc2cccc(-c3cn4cccnc4n3)c2)c1	inactive: 78%
CC1=C(C)NC(=S)SC1	inactive: 111%
CCOC(=O)Cn1c(=O)cc(C)c2c(C)nn(-c3cccc(F)c3)c21	inactive: 72%
Cc1ccc2c(c1)-c1onc(C(=O)N(C)c3ccc(F)cc3)c1CO2	inactive: 82%
CCc1ccc(S(=O)(=O)Nc2ccc3oc(C)c(C(=O)OCCOC)c3c2)cc1	inactive: 60%
O=C(Cc1ccccc1)NCc1ccccn1	inactive: 90%
COc1ccc(CNC(=O)C2CCN(S(=O)(=O)Cc3ccccc3)CC2)cc1	inactive: 114%
Cc1cccc(NC(=O)c2cc3c(C)nn(-c4ccccc4)c3s2)c1	active: -2%
CCOC(=O)c1[nH]c(C)c(C(=O)NCc2ccccc2Cl)c1C	inactive: 114%

SMILES	survival
O=C(NCc1ccc2c(c1)CCN2C(=O)c1ccncc1)c1cccc(F)c1	inactive: 80%
COc1ccc(NC(=O)c2ccc(-c3nc(CSc4ccccc4)c(C)o3)cc2)c(OC)c1	inactive: 76%
CCCCN(c1ccccc1)S(=O)(=O)c1cc2c3c(c1)C(C)C(=O)N3CCC2 (configuration not stated)	inactive: 73%
O=C(CCc1nnc2n(Cc3ccccc3Cl)c(=O)c3ccccc3n12)Nc1ccccc1	inactive: 95%
CCOC(=O)C1CCCN(S(=O)(=O)c2cc(Br)cc3c2N(C(=O)CC)CC3)C1 (configuration not stated)	inactive: 62%
CCOc1ccc(C2c3[nH]c4ccccc4c3CCN2C(=O)CCC2CCCC2)cc1 (configuration not stated)	inactive: 97%
Cc1nn(-c2ccc(N3CCCCC3)nn2)c(C)c1CCC(=O)Nc1cccc(F)c1	inactive: 72%
Cc1ccn2c(=O)c(NC(=O)c3cccc([N+](=O)[O-])c3C)c(C)nc2c1	inactive: 65%
CCN(CCCNC(=O)CN1N=C(c2ccc(C)cc2)CCC1=O)c1ccccc1	active: -2%
O=c1cc(-c2ccccc2)nc(SCc2nc(-c3cccc(C(F)(F)F)c3)no2)[nH]1	inactive: 83%
Cc1ccc(COC(=O)c2ccc(-c3nnn(Cc4ccc(C)cc4)n3)cc2)cc1	inactive: 76%
Fc1ccc(-n2ncc3c(NCCCc4ccccc4)ncnc32)cc1	inactive: 129%
CCCCN(CC)C(=O)Cn1cc2c(n1)-c1c(oc(C(=O)N3CCCC3)c1C)CC2	inactive: 85%
CC(=O)C(Sc1nc(-c2ccccc2Cl)nc2c1c(=O)n(C)c(=O)n2C)C(=O)N(C)C (configuration not stated)	inactive: 71%
CCC(=O)N1CCc2cc(S(=O)(=O)NC(CC(C)C)C(=O)NCc3cccc(OC)c3)ccc21 (configuration not stated)	inactive: 73%
Cc1ccc(CNC(=O)CCCn2nc(C)n3c(cc4sccc43)c2=O)cc1	inactive: 82%
COc1cccc(C(=O)c2cn(CC(=O)Nc3ccc4c(c3)OCCO4)c3nc(C)ccc3c2=O)c1	inactive: 86%
COc1ccc(C2CC(=O)C=C(NCCC(C)C)C2)cc1 (configuration not stated)	inactive: 115%
Cc1ccc(NC(=O)NCc2c(-n3cccc3)sc3c2CCCC3)c(Cl)c1	inactive: 90%
Cc1ccc(CNC(=O)c2cn(C)c3ccc(S(=O)(=O)N4CCC(C)CC4)cc3c2=O)cc1	inactive: 71%
CCOC(=O)c1cccc(NC(=O)NC2COc3ccccc3C2)c1 (configuration not stated)	inactive: 73%
CCN(Cc1ccccc1)S(=O)(=O)c1ccc(F)c(C(=O)Nc2ccc(C(C)C)cc2)c1	inactive: 95%
Cc1cccc(C)c1NC(=O)c1cc2sccc2n1Cc1ccc(F)cc1	inactive: 152%
